Assay results from article PMC10579536.

Legend:
[1] = target: Recombinant human angiopoietin-1 (human) (UniProt Q15389); assay: ELISA
[2] = target: T1, Recombinant ADAMTS-13 (human) (UniProt Q76LX8); assay: ELISA
T1 sequence: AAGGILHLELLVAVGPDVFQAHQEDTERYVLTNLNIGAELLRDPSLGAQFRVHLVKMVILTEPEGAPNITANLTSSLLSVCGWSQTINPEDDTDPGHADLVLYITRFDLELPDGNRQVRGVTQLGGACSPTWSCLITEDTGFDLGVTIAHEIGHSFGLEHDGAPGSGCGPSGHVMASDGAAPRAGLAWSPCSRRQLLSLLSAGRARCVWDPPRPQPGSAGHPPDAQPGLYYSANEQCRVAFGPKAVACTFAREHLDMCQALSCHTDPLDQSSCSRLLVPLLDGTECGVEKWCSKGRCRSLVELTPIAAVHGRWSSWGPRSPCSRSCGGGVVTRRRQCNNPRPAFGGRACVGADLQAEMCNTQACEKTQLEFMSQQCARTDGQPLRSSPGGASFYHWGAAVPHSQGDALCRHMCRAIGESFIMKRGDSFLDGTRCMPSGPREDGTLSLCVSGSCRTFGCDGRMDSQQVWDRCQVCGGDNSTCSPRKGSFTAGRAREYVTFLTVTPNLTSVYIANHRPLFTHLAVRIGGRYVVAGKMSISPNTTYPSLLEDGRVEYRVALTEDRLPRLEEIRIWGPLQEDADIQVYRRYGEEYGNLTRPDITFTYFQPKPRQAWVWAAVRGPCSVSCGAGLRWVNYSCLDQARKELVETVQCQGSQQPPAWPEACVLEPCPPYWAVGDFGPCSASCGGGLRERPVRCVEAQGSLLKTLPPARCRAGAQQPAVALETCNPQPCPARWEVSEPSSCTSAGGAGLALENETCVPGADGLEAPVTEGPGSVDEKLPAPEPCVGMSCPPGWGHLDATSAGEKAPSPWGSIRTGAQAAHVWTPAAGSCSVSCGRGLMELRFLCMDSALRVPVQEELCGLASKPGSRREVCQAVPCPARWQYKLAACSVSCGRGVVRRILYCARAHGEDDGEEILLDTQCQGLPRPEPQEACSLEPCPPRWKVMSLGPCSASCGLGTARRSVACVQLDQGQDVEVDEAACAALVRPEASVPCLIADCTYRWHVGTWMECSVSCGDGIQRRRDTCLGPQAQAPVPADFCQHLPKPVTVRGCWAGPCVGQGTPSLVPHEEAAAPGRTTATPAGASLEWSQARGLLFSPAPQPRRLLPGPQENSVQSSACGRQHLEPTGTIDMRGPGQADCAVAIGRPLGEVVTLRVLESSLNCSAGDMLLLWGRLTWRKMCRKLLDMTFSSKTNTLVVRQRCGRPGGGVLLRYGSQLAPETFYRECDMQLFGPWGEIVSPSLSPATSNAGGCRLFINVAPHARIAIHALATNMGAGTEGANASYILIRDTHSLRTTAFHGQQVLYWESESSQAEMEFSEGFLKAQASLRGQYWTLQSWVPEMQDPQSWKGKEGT

Chain of UniProt Q15389 (Q15389 16-498): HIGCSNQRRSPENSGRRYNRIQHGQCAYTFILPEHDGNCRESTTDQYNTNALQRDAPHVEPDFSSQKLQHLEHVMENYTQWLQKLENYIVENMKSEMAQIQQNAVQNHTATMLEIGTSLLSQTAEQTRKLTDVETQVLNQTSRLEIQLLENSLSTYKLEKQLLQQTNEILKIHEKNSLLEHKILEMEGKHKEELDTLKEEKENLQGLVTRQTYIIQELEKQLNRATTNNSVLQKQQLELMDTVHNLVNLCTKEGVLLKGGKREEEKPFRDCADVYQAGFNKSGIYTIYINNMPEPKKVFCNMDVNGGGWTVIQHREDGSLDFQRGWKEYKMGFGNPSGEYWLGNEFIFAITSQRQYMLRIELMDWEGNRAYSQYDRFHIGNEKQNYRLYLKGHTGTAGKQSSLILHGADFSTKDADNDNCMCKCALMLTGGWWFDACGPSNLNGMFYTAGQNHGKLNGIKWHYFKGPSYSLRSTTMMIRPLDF

von Willebrand factor (plasma-derived) (a stretch of the chain, no sequence given) (natural protein)
EC50 [1]: 7.2 nM
EC50 [2]: 1.2 nM
